Measured values: the supplement of paper PMC10126150
Sequences with one replicate were seen in a single cluster, so their values are uncertain.

Test system: ATP
Assay: switch fluorescence ratio, 500 uM ATP over buffer (Cy3 cluster intensity, sum of 5 cycles each) (fold (ratio)); higher = stronger signal-on switching upon ATP binding; sequences stand for … in TCGTCGGCAGCGTCAGATGTGTATAAGAGACAGTTTTTTTTTTTTTTTTTTTTTTTTT…TC
Conditions: aptamer strand: ATP DNA aptamer (quencher-CACCTGGGGGAGTATTGCGGAGGAAGG + anchor), 100 nM annealed; ATP concentration: 500 uM; one replicate
In short: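 Switching-strand clusters labelled with Cy3 on a modified Illumina MiSeq flow-cell were annealed to 100 nM quencher-labelled ATP aptamer, imaged in selection buffer, and re-imaged after 15 min with 500 uM ATP at 22 °C. This was done over five cycles with NaOH stripping and re-annealing in between. The fluorescence ratio is summed target-cycle over summed buffer-cycle Cy3 intensity per cluster, averaged per switch-domain sequence, excluding clusters outside 100-1000 RFU.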
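Note: ATP exposure 15 min at 22 °C before imaging.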

Sequence	switch fluorescence ratio
TAATGTAAAT	1.04
TGGATCCGGG	1.01
CATGAGGGGT	0.989
CTGTTAAAAC	0.992
CTCGGGCATA	1.93
GGTGGCCACG	0.964
CCCCTGGTTG	3.38
TACCGCGTTC	1.5
CCTTGGGCAT	1.67
AACGGTTACT	1.25
AAGTTCATAG	0.989
TATTGATATG	1.02
CTACTTTGAA	0.953
TCTGTAGGCA	0.967
ATAAATCCGT	0.986
TTTTCTATAA	1.01
ACAACCATTA	1.01
GACTGATGAC	1.08
ACGAGTGCAA	1.93
CAGGATGGTC	0.963
GTTATCTTC	1
CCAGTTGCT	1
AATGTCACTC	1.07

Sequence	switch fluorescence ratio
TGTAAGACGT	1.01
GGTAGATGTA	0.985
GCCCCCGAAT	1.09
AATAGATTCT	0.952
AAGTTGTCCC	1.01
TCTATGGGCA	1.04
GTACCATCTA	1.01
AAGAAGGTTT	1.05
CAAGCAAACC	1.91
GTTACCGGGG	1
GATTTATCGG	1.03
TCCTACAACT	1.02
ACACCGAGAC	1.56
AGGCAGCGGG	0.997
AACTAGTTTC	0.988
AGGTATACAT	0.997
GTCGTATATG	0.971
AGTGGGACGG	1.02
CATTAAGGAA	0.978
ACACTCGGTC	1.05
CGGGTGCTTG	1.08
GTTGGTACGC	1
GTAAGTAACC	1.07

Sequence	switch fluorescence ratio
CCTTGGCGGT	1.64
GGGTTATCGC	1.01
AATGTCGTCC	0.992
TATGGTCGCA	1.01
TCCTTGTGTA	0.994
CGAATGGTAT	1
AATGAGGGG	0.977
GAATGCACGG	1
CCTTTAATGG	1.03
ACTCTAGGTT	1.03
CGACATCCTT	1.02
CGCCCCGGGC	1.04
CCTCAGATAT	1.73
GTTCTTGCCG	0.974
TGCGGCCTGG	0.971
TAGAGAGAAA	1.02
ACGATCCACT	1.23
ATGCCTTAG	0.986
CATAGCGTAC	4.64
AGGAAGGTCT	0.973
CATCTTATGT	0.964
ATTGTCAGCA	1
ATGCTTGGCG	1.01

Sequence	switch fluorescence ratio
AGAGATGTAT	0.986
TGCCTGGTGC	1.11
ACTTCGTTTC	1.09
ATTGCTTAC	2.08
GACTTGTGAG	0.991
AAAAGATCAA	0.969
ATCCTCGGCT	1.03
TCCGATAATA	1.62
GCAGGCTTG	1
GCTGAAGAAA	0.996
GCTACGTTTC	1.24
ATCCGCACTA	2.32
CTAAAAAGGG	0.995
CGGAAGGGG	0.969
GTAGTGTAAG	0.997
GATTATCTAA	1.02
TAAAACCGAT	1.02
CAAGGTCACC	1.02
AGCGTTTTGC	0.941
TATTACTGGG	1.02
CCACCCTGAT	1.05
TATCGAGTTC	1.02
GGATCTATTG	1.01

Sequence	switch fluorescence ratio
TATTGCCGGC	1.06
CGGCGTTCTC	1.03
TCTCATGCAC	1.84
TCCATTTCTT	1
TTGGGTGGAC	0.991
TATTTCATT	0.98
CACGTCTGG	1.02
TAATTGGACC	1.01
ATTATATCTG	0.953
CTTGGCACGA	1.02
CGAGTAATAG	2.62
AGGCTATCAG	0.952
ATATTACCGC	1.11
CGTGAGCCGG	0.955
TGTTTTGCCC	1.04
GTGGCTCATC	0.957
TGTGGACCAT	1.03
AGGAACGAGT	0.915
AAAAAGGCC	0.976
AGATGACACA	1.02
AAACTTCATT	1.02
CGGTGGGACT	0.983
GACGCTCTTC	1.04

Sequence	switch fluorescence ratio
TAACCGCCAG	1.3
CATTGTGTGC	1
GTATTAAGA	1.01
AGCTCGTTC	1.01
AGATAAGAGT	1.01
TCTGACCGGA	1.05
CGACGGGTGT	1.22
ATGAAAAA	0.913
AGCTGGACGC	0.992
TGAGGACGGT	1.01
GAGCCGTGAG	0.967
AGCTGCAGAG	1.01
CAGTCTCAGT	0.998
GTCGGTTTAG	1.02
TAAAAAAAC	1.13
TCGGTAACGG	1.04
CGATTCTACC	1.1
TTGTTGACTG	0.97
CGAGTGAGAA	0.967
GGATATTAAC	1.02
CTTCGCCGGT	1.18
AGATGCACGG	1.08
GGCATTTGAT	1.02

Sequence	switch fluorescence ratio
GGCAGTGGAA	0.944
AGTTTAATGG	0.986
TTTGACAACG	1.03
TGCGGGGAAA	1.3
AAGTCACA	1.06
AGCAGGCTTC	1.04
AAGGCGTAGC	1.02
GACAGCGAAG	0.971
TTTGCCCGAT	1.02
AACGCGTCGA	1.09
CTCTCTTAAT	1.03
ACGGCCTTCG	1.13
TCTGTTGTGG	0.984
CACGTGACAG	1.1
AGACAGCAAG	0.955
TTCAATATTA	1
GGCTTATCAC	1.02
GATTATACA	1.02
GTCAGCAACC	1.8
